Compound in this experiment: Cn1c(=O)n(-c2ccc(C(C)(C)C#N)cc2)c2c3cc(-c4cnc5ccccc5c4)ccc3ncc21 [NVP-BEZ235]
Put plainly: Viability of human cancer cell lines after 72 h of drug (GDSC screen). The protocol:
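Human cancer cell lines in 384-well plates, medium with 10% serum, drug for 72 h over a 256-fold dose range (nine 2-fold or five 4-fold steps up to the top dose). Adherent lines were fixed and stained with the nucleic acid dye Syto60, suspension lines read with resazurin; signal relative to control wells, capped at 0 and 100%. One two-parameter sigmoid per drug and line, fitted in a mixed model over all curves with the slope shared within a line.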

The IC50 comes from the fitted curve, where viability falls to half of the control; a limit (>, <) means that the fit lies beyond the doses tested. The AUC spans the tested range (256-fold, ending at the top dose) of the same fit: 1 means no effect, lower means more sensitive.

One may read the IC50 as the midpoint of a concentration-inhibition curve.

For the cell line “GCIY (stomach, adherent, top dose 0.25 µM)”, the AUC stood at 0.694 and the IC50 worked out at 59.2 nM. On the same counts, the results for “GDM-1 (acute myeloid leukaemia, suspension, top dose 0.25 µM)” are 0.941 and greater than 250 nM. On the same counts, the results for “GI-1 (glioma, adherent, top dose 0.25 µM)” are 0.681 and 49 nM.

Turning to “GI-ME-N (neuroblastoma, adherent, top dose 0.25 µM)”, the AUC turned out to be 0.59 and the IC50 amounted to 30.1 nM. “GMS-10 (glioma, adherent, top dose 0.25 µM)”: the AUC is 0.835 and the IC50 is 163 nM. On to “GOTO (neuroblastoma, adherent, top dose 0.25 µM)”, for which the AUC amounted to 0.861 and the IC50 was greater than 250 nM. On the same counts, the results for “GR-ST (lymphoblastic leukaemia, suspension, top dose 0.25 µM)” are 0.7 and 64.8 nM.

As to “GRANTA-519 (B-cell lymphoma, suspension, top dose 0.25 µM)”, the AUC came out at 0.563 and the IC50 stood at 22.8 nM. On to “GT3TKB (stomach, adherent, top dose 2 µM)”, for which the AUC was 0.421 and the IC50 was determined as 78.1 nM. As to H4 (glioma, adherent, top dose 0.25 µM), the AUC turned out to be 0.481 and the IC50 stood at 13.9 nM. On the same counts, the results for “H9 (lymphoid neoplasm, suspension, top dose 0.25 µM)” are 0.828 and 118 nM. On the same counts, the results for “H290 (mesothelioma, adherent, top dose 0.25 µM)” are 0.49 and 14.7 nM.

With “H513 (mesothelioma, semi-adherent, top dose 0.25 µM)”, the AUC stood at 0.785 and the IC50 came out at 132 nM. On the same counts, the results for “H2369 (mesothelioma, adherent, top dose 0.25 µM)” are 0.696 and 56.9 nM. With “H2373 (mesothelioma, adherent, top dose 0.25 µM)”, the AUC turned out to be 0.471 and the IC50 turned out to be 12.8 nM. On the same counts, the results for “H2461 (mesothelioma, adherent, top dose 0.25 µM)” are 0.821 and 195 nM. As for “H2591 (mesothelioma, adherent, top dose 2 µM)”, the AUC was determined as 0.284 and the IC50 worked out at 25.1 nM. As to “H2595 (mesothelioma, adherent, top dose 0.25 µM)”, the AUC turned out to be 0.661 and the IC50 stood at 52.5 nM.

For the cell line “H2731 (mesothelioma, adherent, top dose 0.25 µM)”, the AUC is 0.803 and the IC50 was determined as 146 nM.

Turning to “H2795 (mesothelioma, adherent, top dose 0.25 µM)”, the AUC came to 0.706 and the IC50 was determined as 58.9 nM.

Take “H2869 (mesothelioma, adherent, top dose 0.25 µM)”: the AUC was determined as 0.795 and the IC50 came out at 148 nM. On the same counts, the results for “H3118 (head and neck, adherent, top dose 0.25 µM)” are 0.701 and 61 nM. On the same counts, the results for “H3255 (lung adenocarcinoma, adherent, top dose 0.25 µM)” are 0.709 and 68.7 nM. On the same counts, the results for “H-EMC-SS (chondrosarcoma, adherent, top dose 0.25 µM)” are 0.754 and 107 nM. Consider “HA7-RCC (kidney, adherent, top dose 0.25 µM)”, for which the AUC stood at 0.588 and the IC50 was 27.9 nM.

“HAL-01 (lymphoblastic leukaemia, suspension, top dose 0.25 µM)”: the AUC was found to be 0.585 and the IC50 turned out to be 26 nM. With “HARA (lung squamous cell carcinoma, adherent, top dose 0.25 µM)”, the AUC worked out at 0.75 and the IC50 is 94.2 nM. With “HC-1 (hairy cell leukaemia, suspension, top dose 0.25 µM)”, the AUC worked out at 0.866 and the IC50 stood at 209 nM.

As to “HCC38 (breast, adherent, top dose 0.25 µM)”, the AUC stood at 0.855 and the IC50 worked out at 224 nM. On the same counts, the results for “HCC202 (breast, adherent, top dose 0.25 µM)” are 0.807 and 195 nM. On the same counts, the results for “HCC1143 (breast, adherent, top dose 0.25 µM)” are 0.806 and 194 nM. On the same counts, the results for “HCC1187 (breast, suspension, top dose 0.25 µM)” are 0.886 and greater than 250 nM.

Turning to “HCC1395 (breast, adherent, top dose 0.25 µM)”, the AUC is 0.803 and the IC50 worked out at 154 nM.

With “HCC1419 (breast, adherent, top dose 0.25 µM)”, the AUC amounted to 0.637 and the IC50 is 43.8 nM. On the same counts, the results for “HCC1428 (breast, adherent, top dose 0.25 µM)” are 0.827 and 173 nM. For the cell line “HCC1500 (breast, adherent, top dose 0.25 µM)”, the AUC came out at 0.705 and the IC50 amounted to 60.7 nM. On the same counts, the results for “HCC1569 (breast, adherent, top dose 0.25 µM)” are 0.805 and 180 nM. “HCC1806 (breast, adherent, top dose 0.25 µM)”: the AUC was 0.796 and the IC50 turned out to be 106 nM. On the same counts, the results for “HCC1937 (breast, adherent, top dose 0.25 µM)” are 0.846 and 226 nM. As for “HCC1954 (breast, adherent, top dose 0.25 µM)”, the AUC is 0.893 and the IC50 was greater than 250 nM. Consider “HCC2157 (breast, suspension, top dose 0.25 µM)”, for which the AUC stood at 0.654 and the IC50 is 42.6 nM.

Take “HCC2218 (breast, suspension, top dose 0.25 µM)”: the AUC is 0.882 and the IC50 was greater than 250 nM.

For the cell line “HCC-15 (lung squamous cell carcinoma, adherent, top dose 0.25 µM)”, the AUC came out at 0.675 and the IC50 turned out to be 55.6 nM.

“HCC-44 (lung adenocarcinoma, adherent, top dose 2 µM)”: the AUC worked out at 0.203 and the IC50 was determined as 17.1 nM. On the same counts, the results for “HCC-56 (large intestine, adherent, top dose 0.25 µM)” are 0.84 and 179 nM. Consider “HCC-78 (lung adenocarcinoma, adherent, top dose 0.25 µM)”, for which the AUC is 0.73 and the IC50 was 80.4 nM.

As to “HCC-366 (non-small cell lung carcinoma, adherent, top dose 0.25 µM)”, the AUC was determined as 0.906 and the IC50 is greater than 250 nM. On the same counts, the results for “HCC-827 (lung adenocarcinoma, adherent, top dose 0.25 µM)” are 0.79 and 131 nM. On the same counts, the results for “HCT-15 (large intestine, adherent, top dose 0.25 µM)” are 0.425 and 9.61 nM. “HCT-116 (large intestine, adherent, top dose 0.25 µM)”: the AUC is 0.822. For “HD-MY-Z (Hodgkin lymphoma, adherent, top dose 0.25 µM)”, the AUC stood at 0.678 and the IC50 came out at 49.2 nM.

Turning to “HDLM-2 (Hodgkin lymphoma, suspension, top dose 0.25 µM)”, the AUC worked out at 0.843 and the IC50 was found to be 173 nM. Consider “HDQ-P1 (breast, adherent, top dose 0.25 µM)”, for which the AUC was 0.837 and the IC50 was determined as 217 nM. “HEC-1 (endometrium, adherent, top dose 0.25 µM)”: the AUC was 0.718 and the IC50 is 63.2 nM.

For the cell line “HGC-27 (stomach, adherent, top dose 0.25 µM)”, the AUC is 0.543 and the IC50 came out at 20.1 nM.

Consider “HH (T-cell leukaemia, suspension, top dose 0.25 µM)”, for which the AUC worked out at 0.647 and the IC50 was 45.9 nM.

With “HL-60 (acute myeloid leukaemia, suspension, top dose 0.25 µM)”, the AUC is 0.783 and the 50% inhibitory concentration (IC50) was determined as 94.3 nM. On to HLE (liver, adherent, top dose 0.25 µM), for which the AUC is 0.648 and the IC50 turned out to be 39.1 nM. On the same counts, the results for “HN (head and neck, adherent, top dose 0.25 µM)” are 0.37 and 7.01 nM.

On to “HO-1-u-1 (head and neck, adherent, top dose 0.25 µM)”, for which the AUC is 0.802 and the IC50 worked out at 117 nM. On the same counts, the results for “HOP-62 (lung adenocarcinoma, adherent, top dose 0.25 µM)” are 0.718 and 64.5 nM. On the same counts, the results for “HOS (osteosarcoma, adherent, top dose 0.25 µM)” are 0.558 and 21.9 nM.

For the cell line “HSC-2 (head and neck, adherent, top dose 0.25 µM)”, the AUC turned out to be 0.761 and the IC50 was 82.6 nM. On the same counts, the results for “HSC-39 (stomach, suspension, top dose 0.25 µM)” are 0.691 and 49.2 nM. On the same counts, the results for “HT55 (large intestine, adherent, top dose 0.25 µM)” are 0.958 and greater than 250 nM. With “HT (B-cell lymphoma, suspension, top dose 0.25 µM)”, the AUC is 0.659 and the IC50 worked out at 41.5 nM.

The record behind these values is the supplement of paper PMC4967469.
